Measurements from publication PMC4336329 (PLoS ONE, 2015).
In all, about 310,000 compounds went through this assay and about 2,200 (0.71%) showed an effect of 50% or more. The effect is printed as a negative number. Some of the results follow.

target: human ether-à-go-go-related gene (hERG) potassium channel (human, UniProt Q12809); assay: primary screen, population patch clamp on CHO cells stably expressing hERG
Sequence (Q12809 whole entry, looked up): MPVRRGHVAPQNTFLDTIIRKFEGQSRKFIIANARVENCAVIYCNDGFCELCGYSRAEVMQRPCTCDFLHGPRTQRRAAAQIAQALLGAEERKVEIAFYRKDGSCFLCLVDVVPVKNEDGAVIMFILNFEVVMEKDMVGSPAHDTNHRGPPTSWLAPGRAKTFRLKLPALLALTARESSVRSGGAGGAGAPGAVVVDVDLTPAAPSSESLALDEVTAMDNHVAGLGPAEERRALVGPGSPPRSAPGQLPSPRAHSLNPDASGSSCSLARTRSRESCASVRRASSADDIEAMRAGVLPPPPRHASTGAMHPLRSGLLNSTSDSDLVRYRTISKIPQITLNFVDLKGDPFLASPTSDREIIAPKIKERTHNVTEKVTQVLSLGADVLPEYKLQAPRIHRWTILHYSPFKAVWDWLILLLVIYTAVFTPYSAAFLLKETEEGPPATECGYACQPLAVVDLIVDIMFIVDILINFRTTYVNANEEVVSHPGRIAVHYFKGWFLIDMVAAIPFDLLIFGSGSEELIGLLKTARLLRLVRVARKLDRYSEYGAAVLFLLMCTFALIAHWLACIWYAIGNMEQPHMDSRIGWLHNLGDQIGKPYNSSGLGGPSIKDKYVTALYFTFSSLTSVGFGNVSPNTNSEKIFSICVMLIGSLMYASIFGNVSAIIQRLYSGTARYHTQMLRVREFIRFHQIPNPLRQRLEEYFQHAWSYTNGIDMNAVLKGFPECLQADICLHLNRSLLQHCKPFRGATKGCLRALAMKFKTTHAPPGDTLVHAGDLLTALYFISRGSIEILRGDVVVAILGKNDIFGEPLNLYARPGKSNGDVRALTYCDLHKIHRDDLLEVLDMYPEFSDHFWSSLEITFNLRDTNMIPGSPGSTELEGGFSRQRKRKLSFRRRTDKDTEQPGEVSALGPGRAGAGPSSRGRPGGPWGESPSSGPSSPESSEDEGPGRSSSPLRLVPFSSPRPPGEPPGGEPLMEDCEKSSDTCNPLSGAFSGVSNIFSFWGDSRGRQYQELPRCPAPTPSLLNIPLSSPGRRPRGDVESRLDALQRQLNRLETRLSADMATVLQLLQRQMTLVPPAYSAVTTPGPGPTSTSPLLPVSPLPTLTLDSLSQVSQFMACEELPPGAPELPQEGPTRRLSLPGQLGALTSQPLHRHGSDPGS

SMILES	hERG current change (%, negative = inhibition) at 1uM
CN1CCC(=O)N([C@H](CO)c2ccccc2)CC1	3.71%
N#Cc1c(N2CCN(C(=O)c3ccccc3)CC2)nc(-c2ccccc2)c2c1CCCC2	-12.2%
C/C(Cl)=C/Cc1c(C)[nH]c2ccc(C)cc2c1=O	2.92%
CCOC(=O)C1CCN(CCC(=O)Nc2ccccc2)CC1	-0.3%
O=S1(=O)N(CCN2CC=C(c3c[nH]c4cc(F)ccc34)CC2)c2cccc3c2N1CCC3	3.08%
O=C(CN(CC1CCCO1)C(=O)CCC(=O)Nc1ccccn1)NCC1CCCO1 (centres unmarked)	9.8%
Cc1sc2ncnc(NCc3cccs3)c2c1C	2.15%
COc1ccc(/C(O)=C/C(=O)C(=O)NNC(=O)c2ccccc2)cc1	16.6%
Cc1ccc(-c2cc(C(=O)n3cnc4ccccc43)c3ccccc3n2)cc1C	4.97%
CCCOc1ccc(NC(=O)CC2C(=O)N(CC)C(=S)N2Cc2cccs2)cc1 (centres unmarked)	9.87%
COc1ccc(NC(=O)COc2coc(CN3CCc4ccccc43)cc2=O)cc1	3.78%
COc1ccc(C2(c3ccc(OC)cc3)NC(=O)N(CC(=O)N(C)C3CCC(C)CC3)C2=O)cc1 (centres unmarked)	-5.84%
CC1(C)CC(=O)C=C(Nc2ccc(Cl)cc2)C1	9.64%
COc1cc(CC(=O)Nc2sc3c(c2C(N)=O)CCCC3)cc(OC)c1OC	12.7%
O=C(COC(=O)c1ccc(Br)o1)NCc1ccco1	-3.21%
COc1ccc(CCN2CC(C(=O)N3CCCCCC3)CCC2=O)cc1 (centres unmarked)	14.9%
COc1ccc(-c2oc3ccc(-c4cc(OC)c(OC)c(OC)c4)cc3c2C(=O)c2ccc(OC)nc2)cc1	9.84%
COc1ccccc1CN(C)C(=O)CNC(=O)c1cccc(Cl)c1	8.62%
COc1ccccc1NC(=O)c1cc(Br)ccc1Cl	6.71%
Cc1cc(NC(=O)Nc2ccccc2Cl)no1	14.7%
O=C(NN1C(=O)C2C3c4ccccc4C(c4ccccc43)C2C1=O)c1ccccc1 (centres unmarked)	14.3%
CCCn1c(SCC(=O)Nc2cccc(C(=O)OCC)c2)nnc1-c1ccoc1C	5.88%
COc1cc(C(C#N)N2CCC(c3ccccc3)=N2)ccc1O (centres unmarked)	5.94%

SMILES	hERG current change (%, negative = inhibition) at 1uM
C/C(=N\NC(=O)c1ccc(Cl)c(Cl)c1)c1ccc(Br)s1	-0.684%
CCOc1ccc2nc(N(CCN(CC)CC)C(=O)/C=C/c3cccs3)sc2c1.Cl	9.57%
Nc1nnnn1/N=C/c1ccc(F)cc1	18.5%
O=C(c1ccc2c3c(cccc13)CC2)C1CCCN(Cc2cccnc2)C1 (centres unmarked)	-14.4%
c1csc(-c2cc(N3CCCCC3)c3ccccc3n2)c1	8.47%
Nn1c(SCC(=O)Nc2ccccc2)nnc1C1CCCCC1	4.81%
COc1cc(/C=N/NC(=O)c2nonc2C)ccc1O	18.1%
C/C=C/C=N/Nc1nc(C)cc(=O)[nH]1	11.6%
O=C(CN1C(=O)/C(=C/c2ccc(Cl)cc2)SC1=S)NC1C=CS(=O)(=O)C1 (centres unmarked)	17.6%
O=S(=O)(Cc1ccccc1)c1ccccc1-c1nnc(-c2ccccc2)o1	14.9%
COc1ccc(C(=O)NCC(=O)Nc2ccc(F)cc2)cc1OC	4.45%
COc1cccc(-c2cccc(NC(=O)C3CCN(Cc4ccc(CO)o4)CC3)c2)c1	-10.4%
CCCCNC(=O)C1CCN(S(=O)(=O)c2ccc3c(c2)CC(C)N3C(=O)C2CC2)CC1 (centres unmarked)	6.25%
O=C(NNC(=O)c1ccccc1-n1cccc1)c1ccc(Cl)cc1Cl	2.6%
N#CCSc1nc(Nc2ccc3c(c2)OCO3)c2ccccc2n1	1.36%
COc1ccc(-c2nc(CC(=O)O)cs2)cc1OC	19.5%
CC(Oc1ccccc1)C(=O)NC1=NCCS1 (centres unmarked)	8.09%
c1ccc(-c2csc(Nc3nc(N4CCOCC4)nc(N4CCOCC4)n3)n2)cc1	8.82%
CC1=CC2=NC(=O)/C(=C\c3cccn3CCOc3ccccc3C)C(=N)N2O1	1.22%
COc1ccc(C(=O)COC(=O)CNC(=O)c2cccc(OC(F)F)c2)cc1	-7.51%
CC(C)NCC(O)COc1ccc(CCOCC2CC2)cc1.Cl (centres unmarked)	2.51%
CCn1c(C)nnc1SCC(=O)Nc1ccccc1Cl	6.94%
CC(=O)Nc1cccc(C(=O)Nc2ccccc2C(=O)O)c1	12.2%

SMILES	hERG current change (%, negative = inhibition) at 1uM
Cc1ccc(C)c(NC(=S)NNC(=O)c2ccco2)c1	11.9%
COc1ccc(OC)c(/C=N\NC(=O)c2c(C)nc3cc(C)ccn23)c1	-3.48%
Nn1c(Cc2ccccc2)n[nH]c1=S	13%
O=C1CSC(=Nc2ccccc2Cl)N1	3.64%
O=S(=O)(NCc1csc(-c2cccnc2)n1)c1ccc(F)cc1	44.7%
CC(C)NC(=O)C12CC3CC(C1)CC(C(=O)NC(C)C)(C3)C2	5.74%
Cc1ccc(NC(=O)c2ccc(OCc3c(C)noc3C)cc2)nc1	2.26%
CC(C)Cn1c(C(C)C)nc([N+](=O)[O-])c1S(=O)(=O)c1ccc(F)cc1	-1.31%
Cc1ccccc1-n1nc2c(c1NC(=O)c1cccs1)CS(=O)(=O)C2	5.26%
O=C1C(Cc2ccc(O)cc2)NC(=S)N1c1ccccc1 (centres unmarked)	-0.276%
COc1ccc(COC(=O)c2sc3nc4n(c(=O)c3c2C)CCC4)cc1	5.84%
Cc1ccccc1CN1CCNC(=O)C1CC(=O)NCCN1CCCCC1=O (centres unmarked)	16.6%
COC(=O)c1ccc(CC(=O)c2ccc(O)cc2O)o1	14.8%
O=C(Nc1nc2ccccc2[nH]1)C1CCCC1	-0.671%
Cc1cccc(N2C(=O)C3CCC(c4ccccc4)CC3C2=O)c1 (centres unmarked)	9.09%
ClC(Cl)(Cl)c1nc(N/N=C/c2ccncc2)c2ccccc2n1	20.9%
CCCCn1c(N)c(N(CC(C)C)C(=O)c2ccc(C)o2)c(=O)[nH]c1=O	16.2%
C#Cc1cccc(C(=O)N2CCCC(CCC(=O)NCc3ccccc3F)C2)c1 (centres unmarked)	11.2%
CC1Cc2ccccc2N1C(=O)CSc1nncs1 (centres unmarked)	11.8%
Cc1c(C(=O)O)oc2ccc(S(=O)(=O)N3CCCCC3C(=O)O)cc12 (centres unmarked)	4.79%
Cc1ccccc1-c1nnc(CN2CCC(C)CC2)o1.Cl	3.12%
C=CCN1C(=O)C(Cc2cccc(C)c2)SC1=Nc1ccc(C(=O)O)cc1 (centres unmarked)	-24.7%
CCn1nnc(NC(=O)C(C)(c2ccccc2)c2ccccc2)n1	1.68%

SMILES	hERG current change (%, negative = inhibition) at 1uM
Cc1cc(C)c(NC(=S)N(CCCN2CCOCC2)Cc2cccnc2)c(C)c1	9.56%
CCC1CCCCN1CCNC(=O)c1[nH]c(C)c(C(C)=O)c1C (centres unmarked)	7.76%
COCCCNc1ncnc2c1nc1n2CCCC1	13.4%
CNC(=O)c1nn(-c2ccc(C)cc2)ccc1=O	4.2%
O=C(NCc1ccccc1)C1=C[C@@H](c2ccc(C(F)(F)F)cc2)C[C@@H](OCc2ccc(CO)cc2)O1	8.89%
c1ccc(Nc2nc(-c3ccncc3)cs2)nc1	3.98%
CCOC(=O)C(NC(=O)c1ccc(OC)cc1)(OCC1(CC)COC1)C(F)(F)F (centres unmarked)	18.8%
Cc1ccc(-c2nc3ncccn3c2NC(=O)C2CC2)cc1	15.1%
Cc1cccc(C)c1OCCNC(=O)OCc1ccccc1	6.49%
CCS(=O)(=O)c1nc(S(=O)(=O)c2ccc(C)cc2)c(NCCCN(C)C)s1	14.9%
Cc1ccc(-c2nnc(SCC(=O)Nc3nc4c(s3)CCCC4)n2C)cc1	9.74%
CO/C([O-])=N/c1c[n+](-c2ccc(Cl)cc2)no1	5.81%
C=CCn1c(C)cc(C(=O)CSc2nnc(C3CC3)n2C2CC2)c1C	9.16%
CC1CC(C)CN(C(=O)c2ccc3c(c2)N(Cc2ccccc2)CCS3)C1 (centres unmarked)	9.52%
COc1ccc(/C(C)=N/NC(=O)CNC(=O)c2cccnc2)cc1OC	11.6%
CCS(=O)(=O)c1nc(S(=O)(=O)c2ccc(C)cc2)c(NCCN2CCOCC2)s1	12.6%
O=C(O)C1CCCCC1C(=O)Nc1ccc(Cl)cc1Cl (centres unmarked)	7.45%
CN(C)CCCNC(=S)N(CCN(C)C)Cc1cc2cc3c(cc2[nH]c1=O)OCCO3	10.5%
COc1cc(/C=N/NC(N)=S)ccc1OCC(=O)Nc1ccc(C)c(C)c1	-11.6%
Cc1ccc(C)c(Oc2ccc(S(=O)(=O)N3CCN(C)CC3)cn2)c1	5.49%
Cc1ccccc1NC(=O)COC(=O)CCc1nc2ccccc2c(=O)[nH]1	9.23%
NCC(O)COCCC12CC3CC(CC(C3)C1)C2 (centres unmarked)	10.3%
COCCN(Cc1cccs1)S(=O)(=O)c1csc(C(N)=O)c1	-2.6%
